These are yes or no findings as the source states them, for the method shown. Binding seen in cells or lysates may run through a third protein. Some binding calls cover weakened binding; strength is not graded here. For some assays here: Tags and fused reporters may be left off the sequences shown.

Amino acid sequences for entries named in this document (tags omitted).
UniProt Q86X95: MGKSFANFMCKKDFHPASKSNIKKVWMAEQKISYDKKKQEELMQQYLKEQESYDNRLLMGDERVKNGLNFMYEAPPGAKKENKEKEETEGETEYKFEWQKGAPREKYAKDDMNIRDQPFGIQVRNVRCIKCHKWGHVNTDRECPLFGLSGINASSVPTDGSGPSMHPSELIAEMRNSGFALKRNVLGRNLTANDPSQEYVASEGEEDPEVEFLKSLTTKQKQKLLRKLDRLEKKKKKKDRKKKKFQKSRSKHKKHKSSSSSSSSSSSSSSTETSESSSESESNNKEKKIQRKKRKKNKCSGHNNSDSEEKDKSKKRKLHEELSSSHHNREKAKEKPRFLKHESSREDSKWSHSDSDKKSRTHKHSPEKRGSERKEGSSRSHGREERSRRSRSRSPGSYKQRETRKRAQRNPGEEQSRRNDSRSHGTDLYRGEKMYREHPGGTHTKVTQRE
UniProt Q06330: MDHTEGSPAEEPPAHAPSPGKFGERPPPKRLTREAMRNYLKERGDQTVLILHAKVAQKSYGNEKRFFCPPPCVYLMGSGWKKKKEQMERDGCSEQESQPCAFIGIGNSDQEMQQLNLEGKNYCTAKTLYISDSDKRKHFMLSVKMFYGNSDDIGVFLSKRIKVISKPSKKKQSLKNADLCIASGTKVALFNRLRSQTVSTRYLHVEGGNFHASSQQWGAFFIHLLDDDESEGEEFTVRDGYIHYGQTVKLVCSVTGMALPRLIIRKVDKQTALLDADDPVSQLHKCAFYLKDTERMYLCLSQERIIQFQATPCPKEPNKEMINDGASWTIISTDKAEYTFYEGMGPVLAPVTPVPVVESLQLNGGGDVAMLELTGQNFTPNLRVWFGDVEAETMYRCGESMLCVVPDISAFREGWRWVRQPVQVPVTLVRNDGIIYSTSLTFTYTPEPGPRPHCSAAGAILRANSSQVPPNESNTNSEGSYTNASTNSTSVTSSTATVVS
UniProt Q92830: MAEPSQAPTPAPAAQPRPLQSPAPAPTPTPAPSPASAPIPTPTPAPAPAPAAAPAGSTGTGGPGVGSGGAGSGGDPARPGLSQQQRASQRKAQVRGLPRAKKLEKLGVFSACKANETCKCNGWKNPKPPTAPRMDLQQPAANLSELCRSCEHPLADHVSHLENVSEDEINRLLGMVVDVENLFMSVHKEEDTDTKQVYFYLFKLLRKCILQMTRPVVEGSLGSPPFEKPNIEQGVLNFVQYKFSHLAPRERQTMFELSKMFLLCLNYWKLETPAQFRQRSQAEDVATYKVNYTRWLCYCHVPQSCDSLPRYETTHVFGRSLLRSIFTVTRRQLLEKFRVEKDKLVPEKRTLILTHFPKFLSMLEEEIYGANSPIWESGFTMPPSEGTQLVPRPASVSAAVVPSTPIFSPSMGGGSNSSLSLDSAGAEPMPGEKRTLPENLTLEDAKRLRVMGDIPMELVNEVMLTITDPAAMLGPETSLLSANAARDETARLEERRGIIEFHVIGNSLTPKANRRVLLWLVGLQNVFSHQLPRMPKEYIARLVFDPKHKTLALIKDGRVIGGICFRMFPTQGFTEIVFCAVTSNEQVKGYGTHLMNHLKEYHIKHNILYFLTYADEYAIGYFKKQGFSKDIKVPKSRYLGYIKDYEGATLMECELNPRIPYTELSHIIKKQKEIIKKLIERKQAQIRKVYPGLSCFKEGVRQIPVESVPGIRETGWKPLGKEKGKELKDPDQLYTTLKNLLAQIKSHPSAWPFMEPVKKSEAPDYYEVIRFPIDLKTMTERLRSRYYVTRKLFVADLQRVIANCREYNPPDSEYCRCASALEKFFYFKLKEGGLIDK
UniProt Q9NXV2: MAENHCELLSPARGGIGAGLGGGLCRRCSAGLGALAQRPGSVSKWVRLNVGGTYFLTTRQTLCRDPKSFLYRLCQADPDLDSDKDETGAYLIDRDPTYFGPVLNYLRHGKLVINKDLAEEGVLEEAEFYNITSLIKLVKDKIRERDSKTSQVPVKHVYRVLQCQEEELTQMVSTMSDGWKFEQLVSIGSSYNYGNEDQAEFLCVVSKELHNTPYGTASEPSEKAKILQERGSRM
UniProt Q92585: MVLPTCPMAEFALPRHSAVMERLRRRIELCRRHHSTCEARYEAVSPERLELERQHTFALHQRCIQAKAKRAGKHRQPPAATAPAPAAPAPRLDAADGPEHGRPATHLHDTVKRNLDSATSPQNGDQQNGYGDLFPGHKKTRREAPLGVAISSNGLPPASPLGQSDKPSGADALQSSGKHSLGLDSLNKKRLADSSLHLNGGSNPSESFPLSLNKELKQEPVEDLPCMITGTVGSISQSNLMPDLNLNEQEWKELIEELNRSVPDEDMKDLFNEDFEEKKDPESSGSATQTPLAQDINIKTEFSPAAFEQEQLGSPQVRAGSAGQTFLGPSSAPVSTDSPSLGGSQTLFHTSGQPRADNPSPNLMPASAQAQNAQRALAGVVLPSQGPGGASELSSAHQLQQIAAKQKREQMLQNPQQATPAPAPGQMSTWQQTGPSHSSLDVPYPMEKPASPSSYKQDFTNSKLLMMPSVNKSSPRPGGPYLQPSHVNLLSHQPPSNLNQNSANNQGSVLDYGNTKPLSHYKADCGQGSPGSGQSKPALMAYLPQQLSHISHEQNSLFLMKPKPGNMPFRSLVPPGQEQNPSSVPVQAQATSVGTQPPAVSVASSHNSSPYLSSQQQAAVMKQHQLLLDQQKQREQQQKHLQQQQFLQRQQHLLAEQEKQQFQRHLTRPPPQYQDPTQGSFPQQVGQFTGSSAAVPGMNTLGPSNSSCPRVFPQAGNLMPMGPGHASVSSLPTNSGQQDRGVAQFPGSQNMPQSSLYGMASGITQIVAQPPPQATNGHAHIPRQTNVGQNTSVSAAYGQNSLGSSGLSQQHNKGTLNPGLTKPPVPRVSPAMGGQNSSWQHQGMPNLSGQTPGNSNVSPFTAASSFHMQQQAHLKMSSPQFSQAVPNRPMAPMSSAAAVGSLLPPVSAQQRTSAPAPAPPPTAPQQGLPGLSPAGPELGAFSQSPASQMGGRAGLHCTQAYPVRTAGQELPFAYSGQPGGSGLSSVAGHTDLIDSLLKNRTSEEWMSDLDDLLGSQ

For one experiment, the target named is T1, Fluc-KCTD1-flag (human) (UniProt Q719H9).
T1 sequence: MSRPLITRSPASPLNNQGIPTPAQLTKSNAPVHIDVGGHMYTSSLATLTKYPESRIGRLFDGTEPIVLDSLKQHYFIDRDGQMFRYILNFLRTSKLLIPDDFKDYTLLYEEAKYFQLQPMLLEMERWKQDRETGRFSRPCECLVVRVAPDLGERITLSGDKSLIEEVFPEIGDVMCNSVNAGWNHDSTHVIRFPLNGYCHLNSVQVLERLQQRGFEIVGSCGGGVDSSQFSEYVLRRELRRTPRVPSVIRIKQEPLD
Put plainly: co-IP; IP-luminescence: lysate of HEK293 cells cotransfected with Fluc-KCTD1-flag and an Nluc-tagged protein; 300 μg lysate with anti-DYKDDDDK magnetic agarose, 2 h, 4 °C; PBS with 1% Triton X-100, 150 mM NaCl, 5 mM MgCl2; read-out Nluc and Fluc luminescence of IP and total lysate.

In a further experiment the target is T2, KCTD1-mVenus (human) (UniProt Q719H9).
T2 sequence: T1 sequence
Briefly: co-IP; lysate of HEK293 cells transfected with HA-RBPJ and KCTD1-mVenus; IP with anti-GFP antibody and Dynabeads Protein G, 1 h, 4 °C; Western blot with anti-HA. (In western blotting, separated proteins are transferred to a membrane and probed.)

For CIR1-Nluc (from UniProt Q86X95 1-450), the binding result with Fluc-KCTD1-flag (human) is given as “no binding”.

For the molecule HA-RBPJ (from UniProt Q06330 1-500), the binding result in the experiment with KCTD1-mVenus (human) is given as “binds”. As for KAT2A-Nluc (from UniProt Q92830 1-837), the binding entry in the experiment with Fluc-KCTD1-flag (human) is “no binding”.

On to KCTD5-Nluc (from UniProt Q9NXV2 1-234), for which the binding entry with Fluc-KCTD1-flag (human) is on record as “binds”. Still for that read-out and setting: the result for MAML1-Nluc (from UniProt Q92585 1-1016) reads “no binding”; that for Nluc-RBPJ (from UniProt Q06330 1-500), “binds”.

B1: RITA1-Nluc (protein, UniProt Q96K30 1-269)
chain: MKTPVELAVSGMQTLGLQHRCRGGYRVKARTSYVDETLFGSPAGTRPTPPDFDPPWVEKANRTRGVGKEASKALGAKGSCETTPSRGSTPTLTPRKKNKYRPISHTPSYCDESLFGSRSEGASFGAPRMAKGDAAKLRALLWTPPPTPRGSHSPRPREAPLRAIHPAGPSKTEPGPAADSQKLSMGGLHSSRPLKRGLSHSLTHLNVPSTGHPATSAPHTNGPQDLRPSTSGVTFRSPLVTSRARSVSISVPSTPRRGGATQKPKPPWK
For B1, the binding result with Fluc-KCTD1-flag (human) is recorded as “no binding”.

B2: SKIP-Nluc (protein, UniProt Q13573 1-536)
chain: MALTSFLPAPTQLSQDQLEAEEKARSQRSRQTSLVSSRREPPPYGYRKGWIPRLLEDFGDGGAFPEIHVAQYPLDMGRKKKMSNALAIQVDSEGKIKYDAIARQGQSKDKVIYSKYTDLVPKEVMNADDPDLQRPDEEAIKEITEKTRVALEKSVSQKVAAAMPVRAADKLAPAQYIRYTPSQQGVAFNSGAKQRVIRMVEMQKDPMEPPRFKINKKIPRGPPSPPAPVMHSPSRKMTVKEQQEWKIPPCISNWKNAKGYTIPLDKRLAADGRGLQTVHINENFAKLAEALYIADRKAREAVEMRAQVERKMAQKEKEKHEEKLREMAQKARERRAGIKTHVEKEDGEARERDEIRHDRRKERQHDRNLSRAAPDKRSKLQRNENRDISEVIALGVPNPRTSNEVQYDQRLFNQSKGMDSGFAGGEDEIYNVYDQAWRGGKDMAQSIYRPSKNLDKDMYGDDLEARIKTNRFVPDKEFSGSDRRQRGREGPVQFEEDPFGLDKFLEEAKQHGGSKRPSDSSRPKEHEHEGKKRRKE
As for B2, the binding entry with Fluc-KCTD1-flag (human) is reported as “no binding”.

These data come from publication PMC12657730.
